From article PMC6499814
No constants are given. Whether binding was seen depends on the method and setting. In cells and extracts the contact can be indirect. For part of these data: Where a sequence is shown, tags or fusion partners need not be part of it.

T1: Flag-tagged Mfn2, O95140
T1 chain: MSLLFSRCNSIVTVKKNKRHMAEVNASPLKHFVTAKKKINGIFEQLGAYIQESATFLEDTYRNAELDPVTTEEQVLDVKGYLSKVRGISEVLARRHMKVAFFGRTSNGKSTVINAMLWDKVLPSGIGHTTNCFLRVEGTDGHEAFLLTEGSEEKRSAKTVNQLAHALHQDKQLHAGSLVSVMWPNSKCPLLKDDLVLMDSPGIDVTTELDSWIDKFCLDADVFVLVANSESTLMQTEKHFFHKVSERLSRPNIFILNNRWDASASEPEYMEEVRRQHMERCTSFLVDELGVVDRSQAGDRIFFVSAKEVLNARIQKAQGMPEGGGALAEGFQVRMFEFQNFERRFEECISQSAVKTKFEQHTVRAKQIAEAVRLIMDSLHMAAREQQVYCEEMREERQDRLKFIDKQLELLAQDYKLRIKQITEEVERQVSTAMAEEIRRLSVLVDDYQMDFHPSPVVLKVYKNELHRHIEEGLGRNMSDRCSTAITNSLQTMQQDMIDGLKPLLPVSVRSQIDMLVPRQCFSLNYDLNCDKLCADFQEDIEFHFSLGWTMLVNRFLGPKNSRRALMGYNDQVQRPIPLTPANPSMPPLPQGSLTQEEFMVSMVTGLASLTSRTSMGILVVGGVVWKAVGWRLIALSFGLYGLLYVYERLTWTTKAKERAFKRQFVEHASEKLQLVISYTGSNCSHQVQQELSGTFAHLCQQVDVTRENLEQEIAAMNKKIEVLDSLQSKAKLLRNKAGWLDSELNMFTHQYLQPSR

T2: Flag-tagged STX17 (syntaxin 17), P56962
T2 chain: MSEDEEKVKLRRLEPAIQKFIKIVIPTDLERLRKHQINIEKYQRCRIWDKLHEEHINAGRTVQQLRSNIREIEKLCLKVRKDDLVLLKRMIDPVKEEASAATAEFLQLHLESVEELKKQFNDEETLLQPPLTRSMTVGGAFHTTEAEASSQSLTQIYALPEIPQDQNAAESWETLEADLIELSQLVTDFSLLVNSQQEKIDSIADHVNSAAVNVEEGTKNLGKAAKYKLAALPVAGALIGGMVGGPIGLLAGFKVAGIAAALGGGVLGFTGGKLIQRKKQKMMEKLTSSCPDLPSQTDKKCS

B1: DFCP1 (protein, UniProt Q9HBF4 1-777)
chain: MSAQTSPAEKGLNPGLMCQESYACSGTDEAIFECDECCSLQCLRCEEELHRQERLRNHERIRLKPGHVPYCDLCKGLSGHLPGVRQRAIVRCQTCKINLCLECQKRTHSGGNKRRHPVTVYNVSNLQESLEAEEMDEETKRKKMTEKVVSFLLVDENEEIQVTNEEDFIRKLDCKPDQHLKVVSIFGNTGDGKSHTLNHTFFYGREVFKTSPTQESCTVGVWAAYDPVHKVAVIDTEGLLGATVNLSQRTRLLLKVLAISDLVIYRTHADRLHNDLFKFLGDASEAYLKHFTKELKATTARCGLDVPLSTLGPAVIIFHETVHTQLLGSDHPSEVPEKLIQDRFRKLGRFPEAFSSIHYKGTRTYNPPTDFSGLRRALEQLLENNTTRSPRHPGVIFKALKALSDRFSGEIPDDQMAHSSFFPDEYFTCSSLCLSCGVGCKKSMNHGKEGVPHEAKSRCRYSHQYDNRVYTCKACYERGEEVSVVPKTSASTDSPWMGLAKYAWSGYVIECPNCGVVYRSRQYWFGNQDPVDTVVRTEIVHVWPGTDGFLKDNNNAAQRLLDGMNFMAQSVSELSLGPTKAVTSWLTDQIAPAYWRPNSQILSCNKCATSFKDNDTKHHCRACGEGFCDSCSSKTRPVPERGWGPAPVRVCDNCYEARNVQLAVTEAQVDDEGGTLIARKVGEAVQNTLGAVVTAIDIPLGLVKDAARPAYWVPDHEILHCHNCRKEFSIKLSKHHCRACGQGFCDECSHDRRAVPSRGWDHPVRVCFNCNKKPGDL
B2: Myc-tagged STX17 (syntaxin 17), P56962 1-302 (protein)
chain: T2 chain
B3: ULK1, O75385 1-1050 (protein)
chain: MEPGRGGTETVGKFEFSRKDLIGHGAFAVVFKGRHREKHDLEVAVKCINKKNLAKSQTLLGKEIKILKELKHENIVALYDFQEMANSVYLVMEYCNGGDLADYLHAMRTLSEDTIRLFLQQIAGAMRLLHSKGIIHRDLKPQNILLSNPAGRRANPNSIRVKIADFGFARYLQSNMMAATLCGSPMYMAPEVIMSQHYDGKADLWSIGTIVYQCLTGKAPFQASSPQDLRLFYEKNKTLVPTIPRETSAPLRQLLLALLQRNHKDRMDFDEFFHHPFLDASPSVRKSPPVPVPSYPSSGSGSSSSSSSTSHLASPPSLGEMQQLQKTLASPADTAGFLHSSRDSGGSKDSSCDTDDFVMVPAQFPGDLVAEAPSAKPPPDSLMCSGSSLVASAGLESHGRTPSPSPPCSSSPSPSGRAGPFSSSRCGASVPIPVPTQVQNYQRIERNLQSPTQFQTPRSSAIRRSGSTSPLGFARASPSPPAHAEHGGVLARKMSLGGGRPYTPSPQVGTIPERPGWSGTPSPQGAEMRGGRSPRPGSSAPEHSPRTSGLGCRLHSAPNLSDLHVVRPKLPKPPTDPLGAVFSPPQASPPQPSHGLQSCRNLRGSPKLPDFLQRNPLPPILGSPTKAVPSFDFPKTPSSQNLLALLARQGVVMTPPRNRTLPDLSEVGPFHGQPLGPGLRPGEDPKGPFGRSFSTSRLTDLLLKAAFGTQAPDPGSTESLQEKPMEIAPSAGFGGSLHPGARAGGTSSPSPVVFTVGSPPSGSTPPQGPRTRMFSAGPTGSASSSARHLVPGPCSEAPAPELPAPGHGCSFADPITANLEGAVTFEAPDLPEETLMEQEHTEILRGLRFTLLFVQHVLEIAALKGSASEAAGGPEYQLQESVVADQISLLSREWGFAEQLVLYLKVAELLSSGLQSAIDQIRAGKLCLSSTVKQVVRRLNELYKASVVSCQGLSLRLQRFFLDKQRLLDRIHSITAERLIFSHAVQMVQSAALDEMFQHREGCVPRYHKALLLLEGLQHMLSDQADIENVTKCKLCIERRLSALLTGICA
B4: ATG5, Q9H1Y0 1-275 (protein)
chain: MTDDKDVLRDVWFGRIPTCFTLYQDEITEREAEPYYLLLPRVSYLTLVTDKVKKHFQKVMRQEDISEIWFEYEGTPLKWHYPIGLLFDLLASSSALPWNITVHFKSFPEKDLLHCPSKDAIEAHFMSCMKEADALKHKSQVINEMQKKDHKQLWMGLQNDRFDQFWAINRKLMEYPAEENGFRYIPFRIYQTTTERPFIQKLFRPVAADGQLHTLGDLLKEVCPSAIDPEDGEKKNQVMIHGIEPMLETPLQWLSEHLSYPDNFLHISIIPQPTD
B5: WIPI-1 (protein, UniProt Q5MNZ9 1-446)
chain: MEAEAADAPPGGVESALSCFSFNQDCTSLATGTKAGYKLFSLSSVEQLDQVHGSNEIPDVYIVERLFSSSLVVVVSHTKPRQMNVYHFKKGTEICNYSYSSNILSIRLNRQRLLVCLEESIYIHNIKDMKLLKTLLDIPANPTGLCALSINHSNSYLAYPGSLTSGEIVLYDGNSLKTVCTIAAHEGTLAAITFNASGSKLASASEKGTVIRVFSVPDGQKLYEFRRGMKRYVTISSLVFSMDSQFLCASSNTETVHIFKLEQVTNSRPEEPSTWSGYMGKMFMAATNYLPTQVSDMMHQDRAFATARLNFSGQRNICTLSTIQKLPRLLVASSSGHLYMYNLDPQDGGECVLIKTHSLLGSGTTEENKENDLRPSLPQSYAATVARPSASSASTVPGYSEDGGALRGEVIPEHEFATGPVCLDDENEFPPIILCRGNQKGKTKQS

Key:
[1] = target: Flag-tagged STX17 (syntaxin 17) (UniProt P56962); experiment: co-IP; Wild-type or Fis1 KO HeLa cells transfected with Flag-STX17 (or its mutants) and the indicated plasmids for 24 h; IP with anti-Flag beads and immunoblotting; also in cells cultured in glucose or galactose medium for 18 h
Flag-tagged Drp1, O00429 = experiment: co-IP; HEK293T cells co-transfected with Myc-tagged STX17 (or truncations) and Flag-tagged plasmids for 24 h; IP with anti-Flag, blots with anti-Myc and anti-Flag; NP-40 lysis buffer, FLAG M2 beads, 4 °C, 3 h; conditions: remark: other sources report otherwise
Flag-tagged Mfn2, O95140 = target: T1, Flag-tagged Mfn2, O95140; experiment: as above; conditions: remark: other sources report otherwise
[2] = target: T2, Flag-tagged STX17 (syntaxin 17), P56962; experiment: co-IP; Wild-type or Fis1 KO HeLa cells transfected with Flag-STX17 (or its mutants) and the indicated plasmids for 24 h; IP with anti-Flag beads and immunoblotting; also in cells cultured in glucose or galactose medium for 18 h; conditions: remark: other sources report otherwise

| Binder | binding [1] | binding [2] | further results |
| --- | --- | --- | --- |
| B1 | no binding |  |  |
| B2 |  |  | binding (Flag-tagged Drp1, O00429): no binding; binding (Flag-tagged Mfn2, O95140): no binding |
| B3 |  | no binding |  |
| B4 |  | no binding |  |
| B5 | no binding |  |  |
